In PubChem BioAssay AID488969 (Vanderbilt High Throughput Screening Facility, 2010):
In all, about 110,000 compounds were measured (“z-score”: median about -0.1, highest 2% from about 2 on). Some of the results follow. Calls of active or inactive are those of the source.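 Rule for the calls: active = z-score in the third read window above 3 or below -3; inactive = the rest.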

What follows are compounds tested against Metabotropic glutamate receptor 8 (Rattus norvegicus) (UniProt P70579) (assay: rat mGluR8 modulators via GIRK flux, primary screen, cell-based, thallium flux, HTS (AID 488969)). Settings: HEK293 rat mGluR8, GIRK (G protein-gated inwardly rectifying potassium channel) thallium flux, FluoZin2; at 10 µM; stronger effect = higher value; submaximal glutamate (EC20) added with thallium.
Chain of UniProt P70579 (P70579 whole entry, looked up): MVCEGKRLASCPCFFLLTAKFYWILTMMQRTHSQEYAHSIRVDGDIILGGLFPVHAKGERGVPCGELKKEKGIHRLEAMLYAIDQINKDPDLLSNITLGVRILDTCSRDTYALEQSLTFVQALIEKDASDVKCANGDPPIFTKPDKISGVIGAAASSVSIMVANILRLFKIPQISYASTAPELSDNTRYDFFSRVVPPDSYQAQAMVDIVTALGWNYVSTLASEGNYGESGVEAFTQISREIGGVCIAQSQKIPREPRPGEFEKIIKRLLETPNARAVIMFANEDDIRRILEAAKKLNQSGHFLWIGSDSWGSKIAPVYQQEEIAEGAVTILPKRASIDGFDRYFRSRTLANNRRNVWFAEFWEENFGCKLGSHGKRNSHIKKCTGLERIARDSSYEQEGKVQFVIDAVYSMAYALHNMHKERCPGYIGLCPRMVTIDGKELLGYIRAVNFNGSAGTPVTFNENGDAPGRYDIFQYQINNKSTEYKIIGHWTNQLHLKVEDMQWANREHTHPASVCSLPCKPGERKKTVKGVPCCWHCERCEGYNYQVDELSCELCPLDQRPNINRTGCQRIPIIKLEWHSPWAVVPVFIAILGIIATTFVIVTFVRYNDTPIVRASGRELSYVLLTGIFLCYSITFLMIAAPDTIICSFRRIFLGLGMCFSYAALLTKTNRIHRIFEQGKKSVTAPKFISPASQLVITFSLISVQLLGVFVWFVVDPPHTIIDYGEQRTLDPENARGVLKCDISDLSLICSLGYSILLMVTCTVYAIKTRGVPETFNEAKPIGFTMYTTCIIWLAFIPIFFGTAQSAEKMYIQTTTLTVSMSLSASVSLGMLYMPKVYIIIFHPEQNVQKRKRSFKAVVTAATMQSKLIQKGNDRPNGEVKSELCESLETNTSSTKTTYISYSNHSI

**Q.** How did the z-score turn out when `O=Cc1cc2ccccc2nc1SCc1ccc(Cl)c(Cl)c1` was run?
**A.** The z-score was -0.422.

**Q.** How did the z-score turn out when `COc1cc2c(cc1NC(=O)COC(=O)[C@@H](NC(=O)c1ccccc1)C(C)C)oc1ccccc12` was run?
**A.** Its z-score is -0.115.

**Q.** `Nc1cc(C2CCCC2)nn1-c1ccccc1` was tested. Which z-score did it give?
**A.** Its z-score is 0.933.

**Q.** With `O=C(CSc1nc2ncccc2[nH]1)c1ccc(F)cc1` as the compound, how does the z-score read?
**A.** The z-score was 0.0639.

**Q.** How did the z-score turn out when `Cc1ccc(Nc2cc(C)nn2-c2nc(C)cc(=O)[nH]2)cc1` was run?
**A.** The z-score was active: 16.4.

**Q.** How did the z-score turn out when `COc1ccc(-n2cnnc2SCC(=O)Nc2ccc(N3CCOCC3)cc2)cc1` was run?
**A.** Its z-score is -0.339.

**Q.** With `O=C(Nc1ccccc1)C1CCN(C(=O)c2ccccc2)CC1` as the compound, how does the z-score read?
**A.** The z-score was -0.154.

**Q.** For `Cc1ccc(C(=O)Nc2cccc(-c3cnc4ccccc4n3)c2)cc1`, which z-score is on record?
**A.** Its z-score is -0.11.

**Q.** How did the z-score turn out when `Cc1ccc2nc(-c3ccc(NC(=O)CCS(=O)(=O)c4ccccc4)cc3)sc2c1` was run?
**A.** The z-score was 0.109.

**Q.** `CC(C)NC(=S)N1CCN(C(c2ccccc2)c2ccccc2)CC1` was tested. Which z-score did it give?
**A.** Its z-score is -0.495.

**Q.** How did the z-score turn out when `CC1Nc2nc(NC(=O)C(C)(C)C)[nH]c(=O)c2N(C)C1C` (stereo unspecified) was run?
**A.** Its z-score is 0.0939.

**Q.** Which z-score does the source give for `CCSc1nnc(NC(=O)C2Cc3ccccc3CN2S(=O)(=O)CC)s1` (stereo unspecified) here?
**A.** Its z-score is 0.295.

**Q.** With `Cc1cc(N2CCOCC2)nc2ccc(NC(=O)CCC(=O)N3CCC(C)CC3)cc12` as the compound, how does the z-score read?
**A.** Its z-score is 0.27.

**Q.** How did the z-score turn out when `COc1cc2c(cc1OC)CN(c1nc(CN3CCOCC3)nc3sc4c(c13)CCCC4)CC2` was run?
**A.** The z-score was 0.0367.

**Q.** For `CC(C)C(=O)Nc1ccc(Sc2ccc(F)cc2)cc1`, which z-score is on record?
**A.** Its z-score is -0.0187.

**Q.** For `Clc1ccc(Oc2cnc3ccccc3n2)cc1`, which z-score is on record?
**A.** Its z-score is -0.22.

**Q.** `COc1ccc2nc(SCC(=O)c3ccco3)[nH]c2c1` was tested. Which z-score did it give?
**A.** The z-score was 0.746.

**Q.** Which z-score does the source give for `Cc1nnc(NC(=O)Nc2cccc(Cl)c2)s1` here?
**A.** The z-score was -0.208.

**Q.** For `CC/C(=N\NC(=S)Nc1cc(C)ccc1C)c1ccc(OC(F)F)cc1`, which z-score is on record?
**A.** The z-score was active: 3.47.

**Q.** Which z-score does the source give for `O=C(NC(=S)Nc1c(Cl)ccc2nsnc12)c1ccco1` here?
**A.** The z-score was -0.429.

**Q.** Which z-score does the source give for `CC(C)OCCCNC(=O)CN1CCN(Cc2ccccc2Cl)C1=O` here?
**A.** Its z-score is 0.117.

**Q.** Which z-score does the source give for `CC(=O)c1ccc(-n2nnnc2SCC(=O)N2CCc3ccccc3C2)cc1` here?
**A.** The z-score was 0.3.

**Q.** For `COc1cccc(N(CC(=O)N2CCN(C)CC2)S(=O)(=O)c2ccc(C)cc2)c1`, which z-score is on record?
**A.** The z-score was 0.199.

**Q.** How did the z-score turn out when `O=C(CCCn1c(=O)c2sccc2n(CC(=O)NCc2ccco2)c1=O)NCc1ccco1` was run?
**A.** The z-score was -0.412.

**Q.** Which z-score does the source give for `CCC(=O)Nc1cccc(NC(C)=O)c1` here?
**A.** The z-score was -0.221.

**Q.** With `COC(=O)C1=C(Nc2ccc(C)cc2)C=C(C)C(C(=O)OC)C1c1cccc(OC)c1` (stereo unspecified) as the compound, how does the z-score read?
**A.** Its z-score is -0.00294.

**Q.** With `Cc1ccc(-c2csc(C(C#N)=C3CCCC3)n2)cc1` as the compound, how does the z-score read?
**A.** Its z-score is -0.0695.

**Q.** How did the z-score turn out when `Clc1cccc(OCCN2CCOCC2)c1` was run?
**A.** Its z-score is 0.259.

**Q.** With `COc1cccc(C(=O)CN2C3=NCCCN3c3ccccc32)c1` as the compound, how does the z-score read?
**A.** The z-score was 0.00518.

**Q.** For `CCc1ccc(C(=O)N/N=C/c2cccc3ccccc23)nc1`, which z-score is on record?
**A.** Its z-score is -0.0993.

**Q.** Which z-score does the source give for `CCOC(=O)C1CCN(C(=S)Nc2cccc(C)c2)CC1` here?
**A.** Its z-score is -0.145.

**Q.** With `O=c1cc(CN2CCN(Cc3ccccc3)CC2)c2cc(Cl)ccc2o1` as the compound, how does the z-score read?
**A.** Its z-score is 0.272.

**Q.** With `COc1ccc(CNc2nc(NCc3ccc(OC)cc3)n(S(C)(=O)=O)n2)cc1` as the compound, how does the z-score read?
**A.** Its z-score is 0.236.

**Q.** `O=C1NCCCC1C(=O)Nc1cccc(C(F)(F)F)c1` (stereo unspecified) was tested. Which z-score did it give?
**A.** Its z-score is -0.957.

**Q.** Which z-score does the source give for `Brc1ccc(-c2nc(-c3ccncc3)no2)o1` here?
**A.** Its z-score is 0.0242.

**Q.** How did the z-score turn out when `COc1ccc(CCNC(=O)CCS(=O)(=O)c2ccc(C)cc2)cc1OC` was run?
**A.** Its z-score is -0.0808.

**Q.** How did the z-score turn out when `O=C(Cc1n[nH]c(=O)c2ccccc12)NCc1ccccn1` was run?
**A.** Its z-score is 0.00671.

**Q.** For `O=S(=O)(Cc1cc(Cl)nc(-c2ccccc2)n1)c1ccccc1`, which z-score is on record?
**A.** The z-score was -0.303.

**Q.** For `CCN1CCN(S(=O)(=O)c2cc(OC)ccc2OC)CC1`, which z-score is on record?
**A.** Its z-score is -0.242.

**Q.** For `CC(=O)NC(CCS(C)(=O)=O)C(=O)Nc1ccc(F)cc1Cl` (stereo unspecified), which z-score is on record?
**A.** The z-score was -0.275.

**Q.** Which z-score does the source give for `CC(=O)Oc1ccc(C(=O)Cc2ccccn2)c(O)c1` here?
**A.** The z-score was -0.271.

**Q.** `CCCN1CC23C=CC(O2)C(C(=O)O)C3C1=O` (stereo unspecified) was tested. Which z-score did it give?
**A.** Its z-score is 0.384.

**Q.** For `CCOCCCn1c(C)nc2c(c1=O)c1nc3ccccc3nc1n2-c1ccc(C)cc1`, which z-score is on record?
**A.** The z-score was -0.519.

**Q.** Which z-score does the source give for `CCOc1ccccc1NC(=S)N(CCCN1CCOCC1)Cc1cn(C)c2ccccc12` here?
**A.** Its z-score is -0.615.

**Q.** Which z-score does the source give for `O=[N+]([O-])CC(=Nc1ccc(Cl)cc1)N/N=C\c1oc(O)c2ccccc12` here?
**A.** The z-score was -0.358.

**Q.** Which z-score does the source give for `CCOC(=O)NC(NC(=O)OCC)C(=O)c1ccccc1` here?
**A.** The z-score was -0.227.

**Q.** With `O=C(NCCCN1CCCC1=O)C1CCN(S(=O)(=O)N2CCOCC2)CC1` as the compound, how does the z-score read?
**A.** Its z-score is 0.414.

**Q.** `COc1ccccc1/C=C(/CC(=O)NCc1ccc2c(c1)OCO2)c1nc2ccccc2s1` was tested. Which z-score did it give?
**A.** The z-score was -0.251.

**Q.** With `c1cc2c3c(cccc3c1)C(N1CCCCC1)=N2` as the compound, how does the z-score read?
**A.** The z-score was 0.73.

**Q.** With `CC(C)SCc1nc2ccccc2[nH]1` as the compound, how does the z-score read?
**A.** The z-score was -0.265.

**Q.** How did the z-score turn out when `O=C(COn1nnc2ccccc21)NCC1CCCCC1` was run?
**A.** Its z-score is 0.789.

**Q.** How did the z-score turn out when `COc1ccc2c(Cl)c(-c3nnc(SCC(N)=O)n3C)sc2c1` was run?
**A.** Its z-score is -1.51.

**Q.** How did the z-score turn out when `CCOc1ccc(OCCCCN2CCCC2)cc1` was run?
**A.** The z-score was 0.507.

**Q.** How did the z-score turn out when `NC(=O)[C@H]1CC2(CC(c3cccc(NC(=O)c4ccccc4)c3)=NO2)CN1C(=O)[C@H]1CCC(=O)N1` (stereo partly specified) was run?
**A.** Its z-score is -0.202.

**Q.** `O=C(O)CCS(=O)(=O)c1nc(-c2cccs2)cc(C(F)(F)F)n1` was tested. Which z-score did it give?
**A.** The z-score was -0.41.

**Q.** With `Cc1ccccc1NC(=O)c1c(C)nc(SCC(=O)OCc2ccccc2)c(C#N)c1-c1ccc(F)cc1` as the compound, how does the z-score read?
**A.** Its z-score is -0.347.
